From patent US20220340642A1 (Kyowa Kirin, published 2022)

T1: membrane-bound human TL1A (Met and FLAG tag at the N-terminus) on CHO-K1 cells (human, UniProt O95150 2-251)
T1 construct: also called TL1A/CHO
T1 sequence: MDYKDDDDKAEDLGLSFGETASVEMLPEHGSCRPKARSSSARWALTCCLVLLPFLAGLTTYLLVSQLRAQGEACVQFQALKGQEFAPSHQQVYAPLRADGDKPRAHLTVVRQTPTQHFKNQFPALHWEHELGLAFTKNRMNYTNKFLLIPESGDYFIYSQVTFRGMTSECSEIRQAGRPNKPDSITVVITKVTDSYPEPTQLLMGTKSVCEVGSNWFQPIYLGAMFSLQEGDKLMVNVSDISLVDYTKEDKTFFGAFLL

T2: soluble recombinant of human TL1A (His6, GS linker, Leu72-Leu251) (human, UniProt O95150 72-251)
T2 construct: also called His6-TL1A; hTL1A
T2 sequence: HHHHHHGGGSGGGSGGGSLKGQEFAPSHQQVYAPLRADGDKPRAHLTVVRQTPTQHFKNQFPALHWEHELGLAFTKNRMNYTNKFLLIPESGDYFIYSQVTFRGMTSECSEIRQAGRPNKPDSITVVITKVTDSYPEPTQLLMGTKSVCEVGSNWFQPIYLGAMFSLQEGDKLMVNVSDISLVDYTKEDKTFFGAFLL

T3: Human His6 Fas Ligand/TNFSF6 (Cell Signaling Technology, Inc.) (human, UniProt P48023 133-281)
T3 construct: Bought; confirmed as a trimer by SEC-MALS; also called recombinant human His6 Fas Ligand; soluble human FasL trimer
T3 sequence: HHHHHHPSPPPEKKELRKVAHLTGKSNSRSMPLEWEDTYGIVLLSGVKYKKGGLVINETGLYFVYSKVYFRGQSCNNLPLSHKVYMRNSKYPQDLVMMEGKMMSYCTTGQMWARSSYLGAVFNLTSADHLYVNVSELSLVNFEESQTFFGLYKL

T4: soluble recombinant of cynomolgus monkey FasL (His6, Pro133-Leu280) (cynomolgus monkey, UniProt P63308 133-280)
T4 construct: also called His6-cynoFasL
T4 sequence: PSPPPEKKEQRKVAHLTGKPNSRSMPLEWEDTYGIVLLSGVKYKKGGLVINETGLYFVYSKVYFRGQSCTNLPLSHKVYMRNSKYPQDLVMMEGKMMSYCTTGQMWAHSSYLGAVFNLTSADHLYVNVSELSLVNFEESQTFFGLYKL

T5: soluble recombinant of cynomolgus monkey TL1A (His6, GS linker, Leu72-Leu251) (cynomolgus monkey)
T5 construct: also called His6-cynoTL1A
T5 chain: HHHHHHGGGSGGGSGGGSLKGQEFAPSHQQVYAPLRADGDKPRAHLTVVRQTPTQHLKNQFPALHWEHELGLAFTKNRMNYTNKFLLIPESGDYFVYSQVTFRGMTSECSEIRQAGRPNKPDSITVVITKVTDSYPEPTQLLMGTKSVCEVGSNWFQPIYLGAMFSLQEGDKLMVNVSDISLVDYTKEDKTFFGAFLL

T6: soluble recombinant of cynomolgus monkey LIGHT (His10, GS linker, Asp74-Val240)
T6 chain: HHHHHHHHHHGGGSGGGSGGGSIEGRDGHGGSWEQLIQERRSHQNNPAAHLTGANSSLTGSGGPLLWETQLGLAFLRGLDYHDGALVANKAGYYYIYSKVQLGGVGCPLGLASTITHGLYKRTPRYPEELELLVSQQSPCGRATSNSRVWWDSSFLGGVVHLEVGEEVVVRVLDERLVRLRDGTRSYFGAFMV

T7: soluble recombinant of cynomolgus monkey FasL (His6, Pro133-Leu280) (UniProt P63308 133-280)
T7 chain: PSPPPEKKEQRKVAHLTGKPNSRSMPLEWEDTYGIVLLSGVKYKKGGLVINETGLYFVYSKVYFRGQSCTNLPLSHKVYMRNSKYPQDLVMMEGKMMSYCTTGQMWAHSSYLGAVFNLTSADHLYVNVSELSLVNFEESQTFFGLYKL

T8: soluble recombinant of cynomolgus monkey TL1A (His6, GS linker, Leu72-Leu251)
T8 chain: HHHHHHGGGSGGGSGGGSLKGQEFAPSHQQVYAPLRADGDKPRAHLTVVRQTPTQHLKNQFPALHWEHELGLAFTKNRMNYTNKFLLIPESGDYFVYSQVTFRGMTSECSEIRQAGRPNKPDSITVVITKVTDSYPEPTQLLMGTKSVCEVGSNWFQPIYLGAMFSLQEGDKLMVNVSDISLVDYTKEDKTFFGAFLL


Tests used:
[1] = molecular target: T9, membrane-bound human LIGHT (human, UniProt O43557 1-240); experiment: flow cytometry on expressing cells
T9 construct: whole, on cells; also called LIGHT/HEK293
Method in brief: (§1)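 Binding was measured by flow cytometry on HEK293 cells forced to express membrane-bound LIGHT and on cell lines expressing N-terminally Met/FLAG-tagged TL1A or FasL from a CMV-promoter pClpuro vector. Cells at 1×10⁵ cells/well received 1 or 10 μg/mL protein on ice for 1 hour. After washing, cells were stained on ice for 1 hour with LIVE/DEAD Fixable Aqua and R-phycoerythrin goat F(ab′)₂ anti-human IgG (10 ng/mL, 0.1 or 1 μg/mL). Fluorescence was read on a FACS Fortessa.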

[2] = molecular target: T1, membrane-bound human TL1A (Met and FLAG …); experiment: flow cytometry on expressing cells
Method in brief: as §1

[3] = molecular target: T2, soluble recombinant of human TL1A …; experiment: SPR, binder captured on Protein A chip
Protocol: (§2) The binding activity to human and cynomolgus monkey DcR3 ligand trimers were analyzed by the SPR method. BIAcore T-100 (GE Healthcare) was used for measurement of the binding activities to human LIGHT, cynomolgus monkey LIGHT, human TL1A and cynomolgus monkey TL1A, and BIAcore T-200 (GE Healthcare) was used for measurement of the binding activities to human FasL and cynomolgus monkey FasL. As the buffer, HBS-EP+Buffer was used.
(§3) Various DcR3 variants were injected into Series S Sensor Chip Protein A (GE Healthcare) at 10 μL/min for 30 seconds and captured. Meanwhile, the buffer containing no protein was injected into a reference flow cell. Thereafter, as an analyte, each human DcR3 ligand trimer or each cynomolgus monkey DcR3 ligand trimer diluted to 0.08 to 20 nmol/L was injected. A human LIGHT trimer, a human TL1A trimer or each cynomolgus monkey DcR3 ligand trimer was injected at the flow rate of 30 μL/min for 2 minutes to monitor the binding, and subsequently the buffer was injected for 5 minutes to monitor dissociation. A human FasL trimer was injected at 30 μL/min for 1 minute to monitor the binding, and subsequently the buffer was injected for 3 minutes to monitor dissociation. Then, 3 mol/L magnesium chloride was injected at 30 μL/min for 1 minute to perform a regeneration reaction.

[4] = molecular target: T3, Human His6 Fas Ligand/TNFSF6 (Cell …); experiment: SPR, binder captured on Protein A chip
Protocol: as §2, §3

[5] = molecular target: T10, FLAG-LIGHT (FLAG tag, human LIGHT Asp74-Val240) (human, UniProt O43557 74-240); experiment: SPR, binder captured on Protein A chip
T10 construct: SEC trimer fraction; also called soluble recombinant FLAG-LIGHT trimer; soluble human LIGHT trimer
Protocol: as §2, §3

[6] = molecular target: T4, soluble recombinant of cynomolgus …; experiment: SPR, binder captured on Protein A chip
Protocol: as §2, §3

[7] = molecular target: T5, soluble recombinant of cynomolgus …; experiment: SPR, binder captured on Protein A chip
Protocol: as §2, §3

[8] = molecular target: T6, soluble recombinant of cynomolgus …; experiment: BIAcore SPR
Method in brief: (§4)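 On a BIAcore T-100 or T-200 instrument (GE Healthcare), with HBS-EP+ Buffer, surface plasmon resonance measured binding of each test molecule to soluble recombinant His-tagged LIGHT, TL1A or FasL. These proteins were of human or cynomolgus monkey origin. The dissociation constant (Kd, nM) was derived from the resulting data.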

[9] = molecular target: T7, soluble recombinant of cynomolgus …; experiment: BIAcore SPR
Method in brief: as §4

[10] = molecular target: T8, soluble recombinant of cynomolgus …; experiment: BIAcore SPR
Method in brief: as §4

binding result [1]	binding result [2]	binding result [3]	binding result [4]	binding result [5]	binding result [6]	binding result [7]	Kd [8] [nM]	Kd [9] [nM]	Kd [10] [nM]	Binder
binds	binds	binds	binds	binds	binds	binds	0.21	0.22	0.12	chimera A-Fc (Eg1S N434A) (Fc fusion) ETFPPKYLHYDEETSHQLLCDKCPPGTYLKQHCTAKWKTVCAPCPPRHYTQFWNYLERCRYCNVLCGEREEEARACHATHNRACRCRTGFFAHAGFCLEHASCPPGAGVIAPGTPSQNTQCQPCPDGFFSNETSSKAPCRKHTNCSVFGLLLTQKGNATHDNICSGNSESTQK[omitted - human IgG1 Fc with changes]
binds	binds	binds	binds	binds	binds	binds	0.2	0.21	0.11	chimera A-Fc (Eg1S LALAGA) (Fc fusion) ETFPPKYLHYDEETSHQLLCDKCPPGTYLKQHCTAKWKTVCAPCPPRHYTQFWNYLERCRYCNVLCGEREEEARACHATHNRACRCRTGFFAHAGFCLEHASCPPGAGVIAPGTPSQNTQCQPCPDGFFSNETSSKAPCRKHTNCSVFGLLLTQKGNATHDNICSGNSESTQK[omitted - human IgG1 Fc with C220S L234A L235A G237A (EU numbers)]
